Reference: PubChem BioAssay AID1347120 (National Center for Advancing Translational Sciences (NCATS), 2019)
In all, about 390,000 compounds went through this assay and about 930 (0.24%) were called active. The inconclusive results got no clear call from the source; some entries with a clear call stand among them for comparison. The call rests on the fitted dose curve; in most records, active means well fitted activation curve with a large enough effect; inconclusive means small, poorly fitted or top-dose-only effect; inactive means no such curve, though single readings can be large or run the other way. Potencies of inconclusive entries are doubtful fits and often do not repeat.

Experiment: qHTS for Suppressors of FUS Proteinopathy: Primary screen using FUS-linked yeast assay; further: nearly all actives have a fitted effect of over 55% in size;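 on growth rescue (activation): plate controls were DMSO vehicle for no effect and reference control for full effect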
Details: S. cerevisiae FUS-expressing, OD600, 24 h; Potency: growth rescue; growth rescue (activation): at 76.6 µM (top of the series)
Summary of the method: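 Yeast expressing FUS under galactose induction, OD 0.005 in 2% galactose medium; compounds in a dilution series, 24 h at 30C. Growth rescue by absorbance at 600 nm; CP55940 positive control, DMSO negative.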
Potency means the concentration at half of the fitted maximal effect; tags describe the fitted curve by direction and shape.

| Structure (SMILES) | Potency | growth rescue (activation) |
| --- | --- | --- |
| CCn1nc(C(=O)OCC(=O)N2c3ccccc3CC2C)c2ccccc2c1=O (stereo unspecified) | inconclusive: 25.1 µM [activator, single point] | – |
| Cc1ccc(C)c(-c2nc3ccc(N)cc3[nH]2)c1 | inconclusive: 35.5 µM [activator, single point] | – |
| COc1ccc(NC(=O)C(=O)NCC2(c3ccccc3)CCCC2)c(OC)c1 | inactive | – |
| C[C@@H]1COC(=O)[C@H](CC(=O)OC(C)(C)C)C/C=C\C[C@@H](CC(=O)N[C@H](CO)Cc2ccccc2)C(=O)N1 | inconclusive: 3.55 µM [activator, full curve] | – |
| O=C(NC(=S)Nc1ccc(-c2ccccc2)cc1)c1ccccc1 | inactive | – |
| CCN(CC)c1ccc(CNc2nc3ccccc3n2CCN2CCOCC2)cc1 | inactive | – |
| CCOC(=O)[C@]12CCCC=C1N(Cc1ccc(OC)cc1)C(=O)[C@@H]2CC(=O)NCC12CC3CC(CC(C3)C1)C2 | active: 17.8 µM | – |
| Cc1cccc(N2C(=O)CC(Sc3ccccc3C(=O)O)C2=O)c1 (stereo unspecified) | inactive | – |
| O=C(NC1CCCCC1)Oc1cccc2ccccc12 | inconclusive: 11.2 µM [activator, single point] | – |
| Cc1c(C(=O)N2CCC(C)CC2)c(S(=O)(=O)N2CCN(c3cccc(Cl)c3)CC2)c(C)n1C | inconclusive: 28.2 µM [activator, single point] | – |
| CCCCNC(=O)C1(C)CCCCCN1Cc1cccc2c(OC)cc(C(=O)OCC)cc12 (stereo unspecified) | inconclusive: 39.8 µM [activator, single point] | – |
| CC(=O)Nc1ccc(-c2ccnc3c2CC(C)(C(=O)Nc2ccc(C(C)C)cc2)O3)cc1 (stereo unspecified) | inconclusive: 22.4 µM [activator, single point] | – |
| CC(Oc1ccccc1)c1ccnn1S(=O)(=O)c1ccccc1 (stereo unspecified) | inactive | – |
| CCOC(=O)N1CCN(CC(=O)Nc2ccc(F)cc2F)CC1 | inactive | – |
| CCOc1ccc(C(=O)NCc2ccc3c(c2)CCN3C(=O)c2ccc(C)cc2)cc1OCC | inconclusive: 10 µM [activator, partial curve, poor fit] | – |
| CN1C(=O)c2[nH]nc(-c3ccc(F)cc3)c2C1c1ccccn1 (stereo unspecified) | inactive | – |
| COc1ccc(Oc2nc(C)nc3c2oc2ccccc23)cc1 | inactive | – |
| Cc1cccc(C(=O)Nc2ccc(N3CCN(c4ccc(F)cc4)CC3)c(C(=O)O)c2)c1 | inactive | – |
| CCOC(=O)c1cc(-c2ccccc2)n(CCCC(=O)Nc2cc(C)ccc2OC)c1C | inconclusive: 35.5 µM [activator, single point] | – |
| COc1ccccc1Cc1nc2ccccc2nc1SCC(=O)N1CCC(C)CC1 | inconclusive: 50.1 µM [activator, single point] | – |
| CCCn1c(N)c(N(C)C)c(=O)n(CC(=O)Nc2ccc(OC(F)(F)F)cc2)c1=O | inconclusive: 5.62 µM [activator, full curve] | – |
| COc1cc(-c2nnc(SCC(=O)Oc3ccccc3Cl)o2)cc(OC)c1OC | inactive | – |

| Structure (SMILES) | Potency | growth rescue (activation) |
| --- | --- | --- |
| CCCCC1=CC2=C(c3ccco3)C(=O)C(C)(OC(=O)c3ccc(OC)cc3)C(=O)C2=CN1CCN1CCOCC1 (stereo unspecified) | inconclusive: 20 µM [activator, partial curve, poor fit] | – |
| CSc1nnc(-c2ccccc2)o1 | inactive | – |
| COc1ccc(NC(=O)COC(=O)C23CC4CC(CC(NC(C)=O)(C4)C2)C3)cc1S(=O)(=O)N1CCOCC1 | inactive | – |
| COC(=O)c1cccc(-n2nnnc2SCC(=O)Nc2nc3c(s2)CCCC3)c1 | inconclusive: 56.2 µM [activator, partial curve, poor fit] | – |
| CCc1ccc(C2=C(C)C(N3CCC(C(=O)NCCc4ccco4)CC3)=NS2(=O)=O)cc1 | inactive | – |
| Cc1ccc(Cc2c(-c3ccc(C#N)cc3)nc3ccc(Br)cn23)cc1 | inactive | – |
| CCn1c(COc2cccc(C)c2C)nnc1SCC(=O)N1CCN(c2ccc(OC)cc2)CC1 | inactive | – |
| COc1ccccc1-c1nnc(SCC(=O)c2ccc(F)cc2)n1-c1ccccc1 | inactive | – |
| COC(=O)c1ccc(C23CC4(C2)[C@H](CN(Cc2ccc(C(F)(F)F)cc2)[C@@H]4c2ccccc2)C3c2ccc(Cl)nc2)cc1 (stereo partly specified) | inconclusive: 31.6 µM [activator, single point] | – |
| C#CCN(C[C@@H]1[C@@H](OC(=O)NCc2ccc(OC)c(OC)c2)[C@@H](OC(=O)NCc2ccc(OC)c(OC)c2)Cn2c(=O)n(CCCCCC)c(=O)n21)S(=O)(=O)c1ccc(C)cc1 | inconclusive: 31.6 µM [activator, partial curve, poor fit] | – |
| Cc1ccc2nc(Nc3ccc4[nH]c(=O)[nH]c4c3)c(-n3nc(C)cc3C)nc2c1 | inconclusive: 17.8 µM [activator, partial curve] | – |
| CC(CC(=O)Nc1ccncc1)c1ccccc1 (stereo unspecified) | inactive | – |
| Cc1ccc(/C=C2/NC(=O)N(c3ccccc3)C2=O)o1 | inconclusive: 44.7 µM [activator, partial curve, poor fit] | – |
| Cc1ccccc1C(=O)Nc1ccc(N2CCCC2)cc1 | inconclusive: 10 µM [activator, full curve, poor fit] | – |
| COc1ccccc1CN1CCC(CNC(=O)c2cnn(-c3ccc(C)c(C)c3)c2C2CCN(C(=O)OC(C)(C)C)CC2)CC1 | inconclusive: 17.8 µM [activator, partial curve, poor fit] | – |
| COc1ccc(-c2csc(NC(C)c3nc4cc(C(=O)NCCCO)ccc4n3Cc3ccc(C)cc3)n2)cc1 (stereo unspecified) | inconclusive: 50.1 µM [activator, single point] | – |
| CCOc1cc(NS(=O)(=O)c2ccccc2)c(OCC)cc1NC(=O)c1ccco1 | inconclusive: 25.1 µM [activator, partial curve] | – |
| CCC(=O)N1CCc2cc(CNC(=O)Nc3cc(Cl)ccc3C(=O)OC)ccc21 | inconclusive: 20 µM [activator, partial curve, poor fit] | – |
| CC1(C(=O)Nc2ccc3c(c2)OCCO3)CN(S(C)(=O)=O)CC(=O)N1Cc1cccc(C(F)(F)F)c1 (stereo unspecified) | inactive | – |
| COC(=O)[C@]12C[C@H](CC(=O)N3CCCC3)C(=O)N(Cc3ccc(Cl)cc3Cl)C1=C[C@H](C(C)(C)C)O[C@@H]2C | active: 17.8 µM | – |
| CCc1noc(-c2ccc(N3CCCCC3)c([N+](=O)[O-])c2)n1 | inactive | – |
| COC(=O)c1cc2occc2n1Cc1ccc(F)cc1Cl | inactive | – |

| Structure (SMILES) | Potency | growth rescue (activation) |
| --- | --- | --- |
| Cc1ccc(C(=O)NCCSc2c(C)[nH]c3ccccc23)cc1C | inconclusive: 35.5 µM [activator, single point] | – |
| O=[N+]([O-])c1ccc(/C=N/n2c(C3CCCCC3)n[nH]c2=S)cc1 | – | inconclusive: 48.8% [activator] |
| COc1ccccc1CN1C(=O)C(C)ON=C1c1ccccc1F (stereo unspecified) | inactive | – |
| CC(=O)Nc1ccc(C(=O)Nc2nc(-c3cccnc3)cs2)cc1 | inconclusive: 39.8 µM [activator, single point] | – |
| CCCOc1ccc(CC(=O)NCC2(c3ccccc3)CCOCC2)cc1OC | inconclusive: 7.08 µM [activator, partial curve, poor fit] | – |
| COc1ccc(CNC(=O)Nc2ccc(C)cc2)cc1 | inconclusive: 2.51 µM [activator, single point] | – |
| COc1ccc(OCCC(=O)OCC(=O)NC(=O)NC2CCCCC2)cc1 | inconclusive: 25.1 µM [activator, partial curve, poor fit] | – |
| Cc1ccc(Nc2nc(-c3ccc(S(=O)(=O)N4CCOCC4)cc3)cs2)cc1Cl | inactive | – |
| COc1cccc(C(=O)Nc2ccccc2N2CCN(C(=O)c3ccccc3)CC2)c1 | inconclusive: 25.1 µM [activator, partial curve] | – |
| N#CCCn1cc(C(CC(=O)c2ccc(Br)cc2)C(=O)O)c2ccccc21 (stereo unspecified) | inconclusive: 25.1 µM [activator, partial curve] | – |
| Cc1ccc(NC(=O)CSc2nc3c(c(=O)[nH]2)CN(Cc2ccccc2)CC3)cc1Cl | inactive | – |
| COc1ccc2c(CCN3C(=O)c4ccccc4C3=O)c(-c3c(CCN4C(=O)c5ccccc5C4=O)c4ccccc4n3C(=O)OC(C)(C)C)[nH]c2c1 | inconclusive: 28.2 µM [activator, single point] | – |
| O=S(=O)(c1ccccc1)N1CCN(C(=S)Nc2ccccc2)CC1 | inactive | – |
| CN(C)CC(=O)N[C@H]1C[C@@H]2O[C@H](CO)CC[C@@H]2O[C@@H]1CCc1ccc(-c2ccc(F)cc2)cc1 | inactive | – |
| CCCCCNC(=O)C(c1ccc(C(F)(F)F)cc1)n1c(=O)c(-c2ccco2)nc2ccccc21 (stereo unspecified) | inconclusive: 15.8 µM [activator, partial curve, poor fit] | – |
| COc1ccc(Cl)cc1NC(=O)CN(C)C(=O)CCc1nc2ccccc2c(=O)[nH]1 | inconclusive: 3.98 µM [activator, full curve] | – |
| COc1ccc(NC(=O)CN(C)C(=O)c2cn(-c3ccccc3)nc2-c2ccc(Cl)cc2)cc1 | inconclusive: 50.1 µM [activator, single point] | – |
| Cc1ccc(C2(C(=O)N3CCC(n4nc(-c5ccccc5)oc4=O)CC3)CC2)cc1 | inconclusive: 22.4 µM [activator, single point] | – |
| CCOC(=O)N1CCN(C(=O)C2CCN(S(=O)(=O)c3ccc(Br)s3)CC2)CC1 | inconclusive: 3.16 µM [activator, single point] | – |
| Cc1ccc(N2C(=O)SC(N(CC(=O)O)c3cccc(C)c3)C2=O)cc1 (stereo unspecified) | – | inconclusive: 57.5% [activator] |
| CN(CC(=O)Nc1ccc(F)cc1)CC(=O)N1CCCCCC1 | inconclusive: 17.8 µM [activator, partial curve] | – |
| O=C(CSc1cccc[n+]1[O-])N1CCCCCC1 | inactive | – |
